Experimental data taken from PubChem BioAssay AID686978 (National Center for Advancing Translational Sciences (NCATS), 2013).
Hit rate of the full screen: of about 420,000 compounds, about 64,000 (15%) were called active. Inconclusive means that the source gave no clear call. Such entries were picked first, then a sample of the others. Calls come from the whole dose curve; as a rule, active = well fitted inhibition curve with a large enough effect; inconclusive = small, poorly fitted or top-dose-only effect; inactive = flat fitted curve, though single readings scatter. No potency is given beside an inconclusive call; the fits are too rough.

Assay: qHTS for Inhibitors of human tyrosyl-DNA phosphodiesterase 1 (TDP1): qHTS in cells in absence of CPT; note: nearly all actives have a fitted effect of over 55% in size
Conditions: DT40 Tdp1-/- hTDP1 cells, no CPT, ATP luminescence, 48 h; activity change, negative = growth inhibition: at 46.2 µM (top of the series)
How it was run: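 A cellular qHTS used chicken DT40 cells lacking endogenous Tdp1 but carrying stably transfected human TDP1. Compounds were applied without camptothecin, and cell growth kinetics were judged by ATP-dependent luminescence after ≥48 hr.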
% is set by controls: 0 for no effect and ±100 for the full control effect; potency is the fitted concentration of half-maximal effect; tags give direction and shape of the fitted curve.

Row | SMILES | activity change, negative = growth inhibition | Potency
1 | Cc1c(N)cccc1-c1nc2ccccc2[nH]1 | inactive: -16.2% | –
2 | Cc1cccc(OCC(=O)Nc2cccc(-c3nc4ccccc4s3)c2)c1 | – | inconclusive [inhibitor, single point]
3 | Cc1cc(C(=O)CCC(=O)Nc2cccc(F)c2)c(C)s1 | – | inconclusive [inhibitor, single point]
4 | CC(=O)c1cc(-c2ccc(F)cc2)n(CCC(=O)NC2CCCCC2)c1C | – | inconclusive [inhibitor, single point]
5 | Cc1cc(C)c2c(c1)/C(=N/NS(=O)(=O)c1ccccc1)CCC2 | inconclusive: -32.6% [inhibitor] | –
6 | CC(C)Cc1nc2sc3c(c2c(=O)n1N)CC(C(C)C)OC3 (stereo not given) | – | active: 2.59 µM
7 | COC(=O)c1ccccc1NC(=O)CCc1c(C)nc2cc(-c3ccc(Cl)cc3)nn2c1C | – | inconclusive [inhibitor, full curve]
8 | COc1ccc(C(=O)N=C2CCC(C#N)=C3c4cc(OC)c(OC)cc4CCN23)cc1 | – | inconclusive [inhibitor, partial curve, poor fit]
9 | O=C(CCCc1nc(-c2ccccc2)no1)N1CCOCC1 | – | inconclusive [inhibitor, full curve]
10 | CCOc1ccc(NC(=S)N2CCCC2)cc1 | inactive: 11.3% | –
11 | Cc1onc(-c2ccccc2Cl)c1C(=O)NC1CCCCCC1 | – | active: 16.4 µM
12 | CCN(CC)CCNC(=O)c1ccc(Cl)c(S(=O)(=O)Nc2ccc(Cl)cc2)c1 | – | inactive
13 | O=C(Nc1nc2ccccc2n1Cc1ccccc1)c1ccc(COc2ccccc2[N+](=O)[O-])o1 | – | inconclusive [inhibitor, single point]
14 | O=[N+]([O-])c1ccc(-c2c[nH]c(=S)[nH]2)cc1 | – | inconclusive [inhibitor, partial curve]
15 | Cc1c(C)c(C)c(C(=O)CCc2cccc(NC(=O)CCC(=O)O)c2)c(C)c1C | – | inconclusive [inhibitor, partial curve]
16 | CCCc1nc(SCC(=O)N2CCCc3ccccc32)c2c(=O)n(C)c(=O)n(C)c2n1 | – | active: 23.1 µM
17 | COc1cc2c(cc1OC)CN(Cc1ccc(C)s1)CC2 | – | inconclusive [inhibitor, full curve, poor fit]
18 | CC(C)CNc1cc(NC2CCCCC2)c2c3c(onc13)-c1ccccc1C2=O | – | inconclusive [inhibitor, single point]
19 | COc1ccccc1NC(=O)C(NC(=O)c1ccc(C)cc1)c1ccccc1 (stereo not given) | – | inconclusive [inhibitor, partial curve, poor fit]
20 | COc1ccc(N(C)C(=O)c2cc3c(s2)-c2ccc(Cl)cc2S(=O)(=O)C3)c(OC)c1 | – | inconclusive [inhibitor, partial curve]
21 | CC(=O)N1c2ccc(S(=O)(=O)N3CCCCC3)cc2CC1C(=O)Nc1ccc(C)cc1 (stereo not given) | – | inconclusive [inhibitor, single point]
22 | COc1ccccc1C1C(C(C)=O)=C(C)N=c2s/c(=C\c3cc(OC)c(OC)c(OC)c3)c(=O)n21 (stereo not given) | – | active: 20.6 µM
23 | O=C(OCC(=O)N1CCN(C(=O)c2ccco2)CC1)c1cccc(F)c1 | inactive: 24.9% | –

Row | SMILES | activity change, negative = growth inhibition | Potency
24 | CCN(Cc1ccccc1)S(=O)(=O)c1ccc(OC)cc1 | – | active: 16.4 µM
25 | COc1cccc(CNCc2c(C(=O)O)c(C)n(Cc3ccc(F)cc3Cl)c2C)c1OC | – | inconclusive [inhibitor, single point]
26 | CCSc1nc2sc3c(c2c(=O)n1-c1ccc(C)cc1)CCCC3 | – | active: 8.2 µM
27 | O=C(Nc1cccc(C(F)(F)F)c1)C1Cc2c(-c3ccc(Cl)cc3)ccnc2O1 (stereo not given) | – | inconclusive [inhibitor, single point]
28 | CC(C)(C)CC(=O)Nc1nnc(SCC(=O)NC2CCCCC2)s1 | – | inconclusive [inhibitor, partial curve]
29 | CC(=O)NC(CC(=O)Oc1ccc(C)cc1Br)c1ccccc1 (stereo not given) | inactive: 7.73% | –
30 | O=C(CC1N=C2c3ccccc3N=C(SCc3cccc(F)c3)N2C1=O)NC1CCCCC1 (stereo not given) | – | inconclusive [inhibitor, single point]
31 | CC(C)(C)NC(=O)C(c1ccncc1)N(C(=O)Cn1nnc(-c2ccc(F)cc2)n1)c1ccccc1 (stereo not given) | – | inconclusive [inhibitor, full curve, poor fit]
32 | Cc1ccccc1OCC(=O)Nc1cc(C)c(O)c(-c2nc3ccccc3o2)c1 | – | inconclusive [inhibitor, single point]
33 | COc1ccc(S(=O)(=O)N(C)c2ccc(C(=O)N3CCCCC3)cc2)cc1 | – | active: 14.6 µM
34 | O=[N+]([O-])c1ccc(N2CCN(S(=O)(=O)c3ccccc3)CC2)c2cccnc12 | – | inconclusive [inhibitor, single point]
35 | CCOc1ccc(N=C2NC(=O)SC2CC(=O)OC)cc1 (stereo not given) | inactive: -10% | –
36 | Cc1ccc(C(=O)NCCc2nnc3ccc(SCC(=O)Nc4cc(C)on4)nn23)cc1 | – | inconclusive [inhibitor, partial curve]
37 | COc1cc(/C=C2/C(=O)ON=C2c2ccccc2)ccc1O | – | active: 18.4 µM
38 | COc1ccc(CNC(=O)CCNC(=O)C2CCN(S(=O)(=O)c3ccc(OC)cc3)CC2)cc1 | inactive: -25.3% | –
39 | Cc1ccc(C(=O)Nc2ccccc2OC(F)F)cc1 | inactive: -17.2% | –
40 | CSc1ccccc1NC(=O)COC(=O)Cc1ccsc1 | inactive: -10.2% | –
41 | COC(=O)c1cnn(-c2ccccc2)c1/C=N/NC(=S)Nc1ccccc1 | – | active: 20.6 µM
42 | CCOC(=O)Nc1ccc2nc(-c3cscn3)[nH]c2c1 | – | active: 5.8 µM
43 | CCCN(CC(=O)Nc1ccc(F)c(F)c1F)C(=O)c1cc([N+](=O)[O-])ccc1N1CCOCC1 | – | inconclusive [inhibitor, single point]
44 | CS(=O)(=O)c1ccc(Cl)c(NC(=O)Cc2ccccc2F)c1 | – | inconclusive [inhibitor, single point]
45 | COc1ccc(NC(=O)CSc2c(C(C)C)cnc3c2c(=O)n(C)c(=O)n3C)c(OC)c1 | – | active: 23.1 µM
